From the supplement of paper PMC12217912
The other results are listed elsewhere or left out. The full chains were built here from the parent and the listed change. Inactive controls read about 0.05.

B1: TEV protease; numbered along this chain (parent)
chain: MGESLFKGPRDYNPISSSICHLTNESDGHTTSLYGIGFGPFIITNKHLFRRNNGTLVVQSLHGVFKVKDTTTLQQHLVDGRDMIIIRMPKDFPPFPQKLKFREPQREERICLVTTNFQTKSMSSMVSDTSCTFPSGDGIFWKHWIQTKDGQCGSPLVSTRDGFIVGIHSASNFTNTNNYFTSVPKNFMELLTNQEAQQWVSGWRLNADSVLWGGHKVFMVKPEEPFQPVKEATQL

Variants of: B1
Assay: raw area under fraction-flipped curve 0-4 h after induction (AUC4h, not background-subtracted), DNA-recorder readout of cleavage of the substrate (dimensionless); higher = more cleavage of the substrate by the protease variant
Details: temperature: 34 °C; time window: 0-4 h after rhamnose induction
Experimental: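 In vivo DNA recorder in E. coli TOP10(DE3) ΔrhaA at 34 °C. Each TEVp single-site mutant (parent TEVp 0) is paired with a single-site variant of the 7-mer TEVs (canonical ENLYFQ|S). The substrate sits between flexible linkers in a Bxb1-sfGFP-TEVs-SsrA fusion, so cleavage stabilises Bxb1 and speeds flipping of a recombination array, read by NGS. The value is the raw area under the fraction-flipped curve over 0-4 h after rhamnose induction (AUC4h), with ≥20 reads per time point. It is not background-subtracted; inactive controls average about 0.047.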
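Also: Bxb1 expression induced with 0.2% (w/v) L-rhamnose at OD600 near 0.5, cultures sampled hourly, flipped fraction per protease–substrate barcode pair counted by paired-end Illumina sequencing.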

Variant	area with substrate ENLYDQS	area with substrate ENLYEQS	area with substrate ENLYGQS	area with substrate ENLYHQS	area with substrate ENLYIQS	area with substrate ENLYLQS	area with substrate ENLYMQS	area with substrate ENLYNQS	area with substrate ENLYPQS	area with substrate ENLYQQS	area with substrate ENLYRQS	area with substrate ENLYSQS	area with substrate ENLYTQS	area with substrate ENLYWQS	area with substrate ENLYKQS	area with substrate ENLYVQS	area with substrate ENLYYQS
MGEVLFKGPRDYNPISSSICHLTNESDGHTTSLYGIGFGPFIITNKHLFRRNNGTLVVQSLHGVFKVKDTTTLQQHLVDGRDMIIIRMPKDFPPFPQKLKFREPQREERICLVTTNFQTKSMSSMVSDTSCTFPSGDGIFWKHWIQTKDGQCGSPLVSTRDGFIVGIHSASNFTNTNNYFTSVPKNFMELLTNQEAQQWVSGWRLNADSVLWGGHKVFMVKPEEPFQPVKEATQL [S4V]	0.0638	0.0585	0.0668	0.0628	0.18	0.118	0.114	0.0746	0.0744	0.0812	0.0607	0.0723	0.0775	0.0876	–	–	–
MGESQFKGPRDYNPISSSICHLTNESDGHTTSLYGIGFGPFIITNKHLFRRNNGTLVVQSLHGVFKVKDTTTLQQHLVDGRDMIIIRMPKDFPPFPQKLKFREPQREERICLVTTNFQTKSMSSMVSDTSCTFPSGDGIFWKHWIQTKDGQCGSPLVSTRDGFIVGIHSASNFTNTNNYFTSVPKNFMELLTNQEAQQWVSGWRLNADSVLWGGHKVFMVKPEEPFQPVKEATQL [L5Q]	0.0692	0.0753	0.074	0.0674	–	0.0969	0.0851	0.0627	0.0853	0.0492	–	0.0694	0.105	0.0768	0.0429	0.163	0.0736
MGESLFKGARDYNPISSSICHLTNESDGHTTSLYGIGFGPFIITNKHLFRRNNGTLVVQSLHGVFKVKDTTTLQQHLVDGRDMIIIRMPKDFPPFPQKLKFREPQREERICLVTTNFQTKSMSSMVSDTSCTFPSGDGIFWKHWIQTKDGQCGSPLVSTRDGFIVGIHSASNFTNTNNYFTSVPKNFMELLTNQEAQQWVSGWRLNADSVLWGGHKVFMVKPEEPFQPVKEATQL [P9A]	0.0521	0.0699	0.0588	0.0754	0.128	–	0.0883	–	0.0728	–	0.0526	0.0764	0.0795	0.08	0.0345	0.121	–
MGESLFKGPLDYNPISSSICHLTNESDGHTTSLYGIGFGPFIITNKHLFRRNNGTLVVQSLHGVFKVKDTTTLQQHLVDGRDMIIIRMPKDFPPFPQKLKFREPQREERICLVTTNFQTKSMSSMVSDTSCTFPSGDGIFWKHWIQTKDGQCGSPLVSTRDGFIVGIHSASNFTNTNNYFTSVPKNFMELLTNQEAQQWVSGWRLNADSVLWGGHKVFMVKPEEPFQPVKEATQL [R10L]	0.0643	0.0739	0.0742	0.0675	0.145	–	0.097	0.0862	0.0814	0.0638	–	–	–	0.0798	0.02	–	0.0784
MGESLFKGPRKYNPISSSICHLTNESDGHTTSLYGIGFGPFIITNKHLFRRNNGTLVVQSLHGVFKVKDTTTLQQHLVDGRDMIIIRMPKDFPPFPQKLKFREPQREERICLVTTNFQTKSMSSMVSDTSCTFPSGDGIFWKHWIQTKDGQCGSPLVSTRDGFIVGIHSASNFTNTNNYFTSVPKNFMELLTNQEAQQWVSGWRLNADSVLWGGHKVFMVKPEEPFQPVKEATQL [D11K]	0.0424	0.0589	0.0737	0.0412	0.156	0.0738	0.0875	0.076	0.0779	–	0.0518	0.0983	–	0.0732	0.0584	0.0993	0.0715
MGESLFKGPRRYNPISSSICHLTNESDGHTTSLYGIGFGPFIITNKHLFRRNNGTLVVQSLHGVFKVKDTTTLQQHLVDGRDMIIIRMPKDFPPFPQKLKFREPQREERICLVTTNFQTKSMSSMVSDTSCTFPSGDGIFWKHWIQTKDGQCGSPLVSTRDGFIVGIHSASNFTNTNNYFTSVPKNFMELLTNQEAQQWVSGWRLNADSVLWGGHKVFMVKPEEPFQPVKEATQL [D11R]	0.0644	0.0671	0.0861	0.0794	0.135	–	0.0762	0.0708	0.115	0.0627	0.0521	0.0778	0.0899	–	0.0663	0.11	0.0645
MGESLFKGPRDYNPISSVICHLTNESDGHTTSLYGIGFGPFIITNKHLFRRNNGTLVVQSLHGVFKVKDTTTLQQHLVDGRDMIIIRMPKDFPPFPQKLKFREPQREERICLVTTNFQTKSMSSMVSDTSCTFPSGDGIFWKHWIQTKDGQCGSPLVSTRDGFIVGIHSASNFTNTNNYFTSVPKNFMELLTNQEAQQWVSGWRLNADSVLWGGHKVFMVKPEEPFQPVKEATQL [S18V]	0.0522	0.0654	0.0605	0.0636	0.107	–	0.092	0.0627	0.0735	0.0738	0.0638	0.0744	0.0866	0.0925	0.0618	0.128	0.0719
MGESLFKGPRDYNPISSYICHLTNESDGHTTSLYGIGFGPFIITNKHLFRRNNGTLVVQSLHGVFKVKDTTTLQQHLVDGRDMIIIRMPKDFPPFPQKLKFREPQREERICLVTTNFQTKSMSSMVSDTSCTFPSGDGIFWKHWIQTKDGQCGSPLVSTRDGFIVGIHSASNFTNTNNYFTSVPKNFMELLTNQEAQQWVSGWRLNADSVLWGGHKVFMVKPEEPFQPVKEATQL [S18Y]	0.0716	0.0582	0.0634	0.0618	0.129	–	0.0781	0.0561	–	0.0565	–	0.0595	–	0.0669	0.0591	0.0852	0.0597
MGESLFKGPRDYNPISSSIAHLTNESDGHTTSLYGIGFGPFIITNKHLFRRNNGTLVVQSLHGVFKVKDTTTLQQHLVDGRDMIIIRMPKDFPPFPQKLKFREPQREERICLVTTNFQTKSMSSMVSDTSCTFPSGDGIFWKHWIQTKDGQCGSPLVSTRDGFIVGIHSASNFTNTNNYFTSVPKNFMELLTNQEAQQWVSGWRLNADSVLWGGHKVFMVKPEEPFQPVKEATQL [C20A]	0.0567	0.0818	0.0744	0.0665	–	0.0576	–	0.0684	0.0811	–	0.0527	0.103	0.0638	0.076	0.023	0.07	–
MGESLFKGPRDYNPISSSICKLTNESDGHTTSLYGIGFGPFIITNKHLFRRNNGTLVVQSLHGVFKVKDTTTLQQHLVDGRDMIIIRMPKDFPPFPQKLKFREPQREERICLVTTNFQTKSMSSMVSDTSCTFPSGDGIFWKHWIQTKDGQCGSPLVSTRDGFIVGIHSASNFTNTNNYFTSVPKNFMELLTNQEAQQWVSGWRLNADSVLWGGHKVFMVKPEEPFQPVKEATQL [H21K]	0.0552	0.0734	0.0664	0.0644	0.0984	0.0902	0.0818	0.0666	0.0726	–	0.0562	0.0552	–	0.0887	–	0.116	0.0857
MGESLFKGPRDYNPISSSICHLTKESDGHTTSLYGIGFGPFIITNKHLFRRNNGTLVVQSLHGVFKVKDTTTLQQHLVDGRDMIIIRMPKDFPPFPQKLKFREPQREERICLVTTNFQTKSMSSMVSDTSCTFPSGDGIFWKHWIQTKDGQCGSPLVSTRDGFIVGIHSASNFTNTNNYFTSVPKNFMELLTNQEAQQWVSGWRLNADSVLWGGHKVFMVKPEEPFQPVKEATQL [N24K]	0.0682	0.0402	0.0683	0.0582	0.0932	–	–	0.0629	0.0722	0.0589	0.066	0.0664	–	0.061	0.0539	0.0202	0.0638
MGESLFKGPRDYNPISSSICHLTNESDHHTTSLYGIGFGPFIITNKHLFRRNNGTLVVQSLHGVFKVKDTTTLQQHLVDGRDMIIIRMPKDFPPFPQKLKFREPQREERICLVTTNFQTKSMSSMVSDTSCTFPSGDGIFWKHWIQTKDGQCGSPLVSTRDGFIVGIHSASNFTNTNNYFTSVPKNFMELLTNQEAQQWVSGWRLNADSVLWGGHKVFMVKPEEPFQPVKEATQL [G28H]	0.051	0.0654	–	0.0648	0.0902	0.0681	0.0715	0.0674	0.0477	–	0.076	0.0682	0.0673	–	0.0669	0.0733	0.0673
MGESLFKGPRDYNPISSSICHLTNESDGQTTSLYGIGFGPFIITNKHLFRRNNGTLVVQSLHGVFKVKDTTTLQQHLVDGRDMIIIRMPKDFPPFPQKLKFREPQREERICLVTTNFQTKSMSSMVSDTSCTFPSGDGIFWKHWIQTKDGQCGSPLVSTRDGFIVGIHSASNFTNTNNYFTSVPKNFMELLTNQEAQQWVSGWRLNADSVLWGGHKVFMVKPEEPFQPVKEATQL [H29Q]	0.0638	–	–	0.0759	0.112	–	0.0816	–	–	0.0614	0.0454	–	0.0796	0.106	0.0586	–	0.0673
MGESLFKGPRDYNPISSSICHLTNESDGWTTSLYGIGFGPFIITNKHLFRRNNGTLVVQSLHGVFKVKDTTTLQQHLVDGRDMIIIRMPKDFPPFPQKLKFREPQREERICLVTTNFQTKSMSSMVSDTSCTFPSGDGIFWKHWIQTKDGQCGSPLVSTRDGFIVGIHSASNFTNTNNYFTSVPKNFMELLTNQEAQQWVSGWRLNADSVLWGGHKVFMVKPEEPFQPVKEATQL [H29W]	0.0587	–	0.0683	0.0722	–	–	0.0944	0.0671	0.0711	–	–	0.0712	0.0896	0.0752	0.0481	0.112	–
MGESLFKGPRDYNPISSSICHLTNESDGYTTSLYGIGFGPFIITNKHLFRRNNGTLVVQSLHGVFKVKDTTTLQQHLVDGRDMIIIRMPKDFPPFPQKLKFREPQREERICLVTTNFQTKSMSSMVSDTSCTFPSGDGIFWKHWIQTKDGQCGSPLVSTRDGFIVGIHSASNFTNTNNYFTSVPKNFMELLTNQEAQQWVSGWRLNADSVLWGGHKVFMVKPEEPFQPVKEATQL [H29Y]	0.0582	0.064	0.0952	0.0779	0.138	0.175	0.0984	0.059	0.0728	0.0651	–	0.0853	0.105	0.0913	0.0592	0.119	0.0636
MGESLFKGPRDYNPISSSICHLTNESDGHTTSQYGIGFGPFIITNKHLFRRNNGTLVVQSLHGVFKVKDTTTLQQHLVDGRDMIIIRMPKDFPPFPQKLKFREPQREERICLVTTNFQTKSMSSMVSDTSCTFPSGDGIFWKHWIQTKDGQCGSPLVSTRDGFIVGIHSASNFTNTNNYFTSVPKNFMELLTNQEAQQWVSGWRLNADSVLWGGHKVFMVKPEEPFQPVKEATQL [L33Q]	0.0636	0.065	0.0681	0.0667	0.0716	0.064	0.0752	0.074	0.0603	0.0691	0.0617	0.0659	–	0.0539	0.0544	0.0921	0.0581
MGESLFKGPRDYNPISSSICHLTNESDGHTTSLYGCGFGPFIITNKHLFRRNNGTLVVQSLHGVFKVKDTTTLQQHLVDGRDMIIIRMPKDFPPFPQKLKFREPQREERICLVTTNFQTKSMSSMVSDTSCTFPSGDGIFWKHWIQTKDGQCGSPLVSTRDGFIVGIHSASNFTNTNNYFTSVPKNFMELLTNQEAQQWVSGWRLNADSVLWGGHKVFMVKPEEPFQPVKEATQL [I36C]	0.0532	0.0553	0.0522	0.0671	0.108	0.0619	0.078	0.0589	0.072	0.0629	–	0.0566	0.0735	0.0797	0.0666	0.121	–
MGESLFKGPRDYNPISSSICHLTNESDGHTTSLYGILFGPFIITNKHLFRRNNGTLVVQSLHGVFKVKDTTTLQQHLVDGRDMIIIRMPKDFPPFPQKLKFREPQREERICLVTTNFQTKSMSSMVSDTSCTFPSGDGIFWKHWIQTKDGQCGSPLVSTRDGFIVGIHSASNFTNTNNYFTSVPKNFMELLTNQEAQQWVSGWRLNADSVLWGGHKVFMVKPEEPFQPVKEATQL [G37L]	0.0544	0.0491	–	0.0612	0.102	0.0606	–	0.0743	0.0575	0.0567	0.092	0.0552	0.0651	0.0554	–	0.12	–
